Assay results as given in the supplement of paper PMC3334620.
In all, about 33,000 sequences were measured (“E-score (-0.5 to 0.5)”: median about -0.01, highest 2% from about 0.26 on). This is one part of the list.

molecular target: Ste12 (UniProt P13574); experiment: PBM E-score (8-mer binding enrichment) (E-score (-0.5 to 0.5)); higher = stronger / more preferred TF binding; most listed sequences are background and not binding sites; settings: protein concentration: 200 nM; construct: GST-DNA-binding domain
In short: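 Universal all-10-mer Agilent arrays, fresh or stripped once, were converted to double-stranded form by primer extension. GST-tagged yeast transcription factors from PURExpress in vitro transcription/translation, full-length or DNA-binding domain only, were applied at about 100-200 nM and detected with fluorescent anti-GST. After masliner normalisation, the Universal PBM Analysis Suite scored each ungapped eight-base word together with its reverse complement by E-score.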

Sequence	PBM E-score
CCCGGGAG	-0.0679
GTACTGCA	-0.174
ACTGCTCT	0.0296
GTGTCAGA	0.147
GACCAATC	-0.0277
AGGGGGTC	-0.169
ATGGCCTA	-0.177
ATTAACGG	0.088
GTTGAGAA	0.0623
GACGTGCC	-0.244
TCCCTGCA	0.0798
CGCATGCA	-0.00954
AGGCCGTA	-0.0213
ACTAAGAG	-0.0255
AGTAATAA	0.116
AGCGGTGA	0.0245
GATTTCGA	0.184
CAGAACAG	-0.091
AGAAAGAC	0.0769
GAAATGCC	0.127
AAGTGATG	0.012
AGTGTTGA	0.0425
AGGGGCAA	0.0609
AGTCTAGG	-0.148
CATTGGGG	-0.165

Sequence	PBM E-score
CAGGGTTC	-0.0459
ATCCATTC	-0.048
AAAGCGAA	0.133
AATACCCA	-0.0006
AAACAAGG	0.0389
GGGACCGA	-0.136
GGTATTAC	0.0767
CGTACTGC	-0.128
AATTGCAC	0.105
AGTTCCAA	0.151
GTAAGACA	0.0839
TATTTAAA	0.379
CAGGTCGA	0.0748
ACGAAACC	0.242
GGATTCGA	0.0144
AAGTTGAG	0.14
AAGACTGT	-0.273
ACTTCTCG	0.0517
AACTCGTC	0.0375
CACTCAGC	-0.0423
CCATTTAA	0.0808
ATCCTTGG	-0.02
AGAAAAAA	0.19
AATTCGAG	-0.0401
GCACCGAA	0.0411

Sequence	PBM E-score
CCGCGTTC	0.0187
GACGATGA	0.0487
GTCCTGGA	-0.347
AAAATCGG	0.00563
ACCTGTAT	-0.023
GCCCGCGA	0.0301
CAGGGGGC	-0.114
AGCGGTAG	-0.0432
CAGGACGC	-0.105
TGTGTCAA	0.203
CAAATATA	0.0746
CTTCTCCA	-0.0874
CATATCGG	-0.00469
AGTTCCCA	0.0392
ACAGGTGA	0.0906
AGGGTCCG	-0.137
CGCGATGC	-0.182
GCAACGGA	-0.101
GTTTGAGA	0.311
CAGTACCG	0.025
TAAGCAAA	0.13
AACTCACC	0.0491
ACAATCTC	0.0621
ATAGAAGC	0.112
CGTAGAAC	-0.249

Sequence	PBM E-score
ACTGGCCG	-0.168
AGGATGTA	0.00541
GAAAAATC	0.201
GACGTTTA	-0.0439
CTGTCTAC	-0.119
CTACTAGC	0.0624
ACGACCCC	-0.0953
GGCCCCCA	-0.188
GACTTACC	-0.0955
CTCAGCGC	-0.104
GGGGGGTA	-0.168
AACAATTG	-0.0846
ACTCAAAC	0.162
ACAACAGT	-0.0193
AACGGCAT	0.0651
CAGATGAC	-0.0905
ATCCCGGG	0.0719
CCGAGTAG	0.0412
CAGCTGAA	-0.077
GGCCGCGA	-0.148
AGGAATTG	0.114
ATGAAGCC	0.154
GTGATATA	-0.0521
CACCTAGC	-0.0791
ACTGAGTC	0.021

Sequence	PBM E-score
TCTTCACA	0.178
CGCACAAC	0.0739
ATCTCCGA	-0.0137
CGGACGAG	-0.118
AATGAATA	0.0177
GTACCGCA	0.131
CCAACACG	0.00364
GCCTGTCC	-0.189
CTTACCAA	0.168
CTATACCC	0.0192
TGTCACAA	0.3
ACTAACCT	-0.0656
ACGGAAAG	0.187
GACGCTAC	-0.0266
GATGCTGA	-0.0794
CGGGGCTA	0.0495
AAGTCTTG	-0.031
CTTTACTC	-0.00567
GGGTTTTA	0.217
ACGCCCGG	0.105
CACCCTCA	-0.13
AAAAGCTA	0.0471
ATAAAGTA	0.245
CTGCTCCC	-0.146
TCCTTAAA	0.0914

Sequence	PBM E-score
AGTACCCA	0.0412
AATCTCGG	0.0621
TCCGCAGA	0.0106
ATCCGCGC	-0.0259
AAACCTGG	0.0779
CACGAGCA	-0.125
GATCAACA	-0.0858
CGTGAGAC	0.0396
GGCCTCAA	0.0416
AGCCCCGG	0.146
CCCTCAGC	-0.216
AAATCACG	0.128
CCCGCGGC	0.224
CAGCCTCC	-0.265
ATGTTACG	-0.0262
ACTCGCAA	-0.0037
CATACATG	0.0988
CTCCAAGC	-0.193
GGGCGCGA	-0.0182
AGAGGAAG	0.113
AGAAATAT	0.243
AATAACTA	0.107
CGTCGAGA	-0.00015
GACGTGGC	-0.157
CGGAGTAA	-0.0496

Sequence	PBM E-score
CGGGACTC	-0.12
ATCCCTGG	-0.155
ATTAAAAT	0.32
CTTATTCA	-0.0544
TAATAAGA	0.037
CAACTCCA	-0.095
AATTGGAT	0.0732
GCTTTGGA	0.0524
AACATCGC	0.0683
GACGATCA	-0.0996
ACGTCGCG	0.0504
GTCATAAA	0.17
AAACACGC	0.288
CAAGTAGG	-0.0651
GACCTCTA	-0.0482
TGTGCGAA	-0.0889
AACATCTT	0.0362
AGCATCGA	-0.00056
AGGATAAT	0.173
ATGCAAGA	0.117
GAAGTCTA	-0.0873
ACCAGGCG	-0.127
CGGTAGTC	-0.227
TCCCACAA	-0.0278
GCAATGAC	-0.255

Sequence	PBM E-score
CCATTAAG	-0.00534
AAAACATT	0.28
GGTCAGAC	-0.145
ATCCATCA	0.0451
CCTTTCCA	-0.0171
GCCTCTAA	-0.0521
CGATAACC	0.114
CGTCGGGC	-0.0929
GAACTAAC	-0.159
CTTATCCC	0.00653
CAGTGCCC	-0.107
AATACTCC	-0.0267
ACTGAGGC	-0.0132
AATCTATC	0.128
AACTGGAT	0.102
CGGTTATA	0.0781
GAAGCGTA	-0.00895
GCACGGGA	-0.245
GACCTTTA	0.101
CTGCCCGC	-0.0379
CAATGTGG	0.0561
ACTAGATA	0.12
ATAGTTTC	0.171
CTGACTCA	-0.121
CAGTACGC	-0.0763

Sequence	PBM E-score
GATGTCTA	-0.0534
AATGGAAT	-0.0314
CCTTTACG	-0.0175
CTGAAGCC	-0.142
ATAAAGTG	0.132
CCTAGGAA	-0.0967
ACGCTAAA	-0.118
GGCCATCA	0.0574
ACCTTCAT	-0.00155
GATCTGAA	0.0323
CAGTCGAA	-0.0458
AAGTTATT	0.0481
GGCGAGAC	-0.1
ATTTTGTC	0.114
AGGTAAAA	0.22
TTGTACAA	-0.0082
GCAGCTGA	0.0442
AATCTTTG	0.0564
CTACAAAA	0.228
